± gives the standard deviation of the averaged measurements. The list shows a part of the results.

In this assay the test system is PfAP2-G AP2 domain (GST-tagged). The experiment in a line: gcPBM binding intensity (ln(normalized median fluorescence intensity)); higher = stronger DNA binding. Summed up:
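Binding intensity values are the highest Masliner-normalised natural-log median intensity among replicate spots of either probe orientation. The binding step lasted 1 h in 1× PBS with 1% milk, 0.2 mg/ml BSA, 0.5% salmon testes DNA and 0.03% Triton X-100, using GST-tagged P. falciparum DNA-binding domains expressed in E. coli on an Agilent 4 × 180k array of primer-extended double-stranded 36-bp intergenic genomic probes plus negative controls. Alexa488 anti-GST antibody and a 488 nm scan detected bound protein.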
Regarding “ATATATTTTTAATTTGCATGTAGTAAAGCCTTAAAT [TGCATGCA_site593]”, the “gcPBM binding intensity (ln)” value is 10 ± 0.26. Then “TTAAATGTGAAGTGAATACACACCTAATAAATATAA [CACACA_site3194]”, with 10 ± 0.11. “TTTTTTACATACAGAAATATATAATATAAAATAAAT [GTGCAC_negctrl_site278]”: the “gcPBM binding intensity (ln)” value is 9.86 ± 0.19.

On to “TTATGTATTACCTGCCGTACTTCTAAAATAATTAAA [XGTACX_site1716]”, for which the “gcPBM binding intensity (ln)” value is 11.2 ± 0.77. As to “TTTAATTTTTATATAACACACATATTGGAATTATGT [CACACA_site734]”, the “gcPBM binding intensity (ln)” value turned out to be 9.9 ± 0.17. With “ATATATTTACTTAATACACACAAAAAAAAAAAAAAA [CACACA_site3657]”, the “gcPBM binding intensity (ln)” value came out at 9.92 ± 0.52. Consider “ACTGTCATTTATTGTAGTACGTCAATTTATTACATT [XGTACX_site2749]”, for which the “gcPBM binding intensity (ln)” value turned out to be 11.4 ± 0.65. In the case of “TATCTTCATTTTTTTGGTACGCACGCAAATATGGCT [XGTACX_site3107]”, the “gcPBM binding intensity (ln)” value stood at 11.3 ± 0.79. Then “TGTTACAAAAAATAATGTACTTAATATATATATATA [XGTACX_site1016]”, with 11 ± 0.7; and “AAAAATATTATAAGCACACATATATATATATATATA [CACACA_site2458]”, with 10.4 ± 0.86; and “TGAATATTCATGTGTGTGCGCATGTTGTTAGACCAT [GTGCAC_site9869]”, with 10.7 ± 0.4. Then “TGTTTTCTTGATTATTGTACTTTAATTAGTAATATG [XGTACX_site8674]”, with 11.5 ± 0.69.

In the case of “TAAATACATTTATGTACACACACATAGATGTATATT [CACACA_site5618]”, the “gcPBM binding intensity (ln)” value worked out at 11.3 ± 0.89. Then “TAATAATAAATAAAATGTACATATGAACAAATAAGT [XGTACX_site6710]”, with 11.3 ± 0.61. Then “AAAAAAAAAATTAATTGTACTAAAAAAATATTATAT [XGTACX_site8903]”, with 11 ± 0.59.

On to “TATAATATGTTATATACACACATTATAAAATACACA [CACACA_site6742]”, for which the “gcPBM binding intensity (ln)” value turned out to be 10 ± 0.25. To “CTCCTTTCAAAAAAATGTACATGTTTACATTTCAAG [XGTACX_site7342]” belongs 11.2 ± 0.79.

With “TATATTATTTTTAGAAGTACTTATTGTTATAATTCT [XGTACX_site1015]”, the “gcPBM binding intensity (ln)” value was found to be 11.2 ± 0.7. Then “AGAAAAGATAAAAATAGTACATATATATTTACTTAT [XGTACX_site7820]”, with 11.1 ± 0.72; and “ACGATTAAATCGATAATACACACTAAATGTAAAACA [CACACA_site119]”, with 9.97 ± 0.028; and “TATACACATATTTTTACACACATATTTTTTCATATA [CACACA_site7244]”, with 10.1 ± 0.23. With “TTATATATAATATGACGTACAATTATACATTTTATG [XGTACX_site7598]”, the “gcPBM binding intensity (ln)” value is 11.4 ± 0.83. As for “ATAAATATTTATAACAGTACATATTTACTATCCTAA [XGTACX_site4497]”, the “gcPBM binding intensity (ln)” value was found to be 10.7 ± 0.49. Consider “TATAAAAAAATATATATATATATTATATGTGTAGAA [TGCATGCA_negctrl_site391]”, for which the “gcPBM binding intensity (ln)” value came out at 9.875 ± 0.064. Take “ATTTATTTGAAGAATTGTACTAAATTATATAGCGGT [XGTACX_site4998]”: the “gcPBM binding intensity (ln)” value is 11 ± 0.67. To “TTTTTTTTTAATCATGCACACTGTTAAAAGAATAAA [CACACA_site4817]” belongs 10.2 ± 0.42; to “TATATCAAAATACATACACACATTTGTATTTACATT [CACACA_site5485]”, 9.945 ± 0.007. Then “ATTTTAATTTGTTATACACACACAAAAAAAATTATA [CACACA_site9306]”, with 10.2 ± 0.26; and “TCTTTTTAACAAAAAAAAAAAAAAAAAAAAAAATTA [CACACA_negctrl_site1637]”, with 9.69 ± 0.21.

“AGAATTTTATTATATTGTACTTTTTATAAACCTTGT [XGTACX_site7495]”: the “gcPBM binding intensity (ln)” value amounted to 11.3 ± 0.91. In the case of TTTTGTTATTTTTCAGTGCAATATGATAATAATATA, the “gcPBM binding intensity (ln)” value was 10.1 ± 0.21. Take “GAATCCTTAATATGAACACACAAATATATTACCCAT [CACACA_site186]”: the “gcPBM binding intensity (ln)” value was determined as 10.2 ± 0.2. Turning to TGCTTATTTAGAATTGTGCACAGCGAATATTCTGTT, the “gcPBM binding intensity (ln)” value was found to be 10.3 ± 0.28. “TACATTTATACTACTGCATTCAAAAAAAATAAAAAA [TGCATGCA_negctrl_site157]”: the “gcPBM binding intensity (ln)” value was 10.1 ± 0.38. To “TTTTTTTTTTCAAATACATGCATTTATGTATAATAC [TGCATGCA_site722]” belongs 10 ± 0.11; to “TTTTTTTTTTTTTTGTGTACTAATATTATAAATTTT [XGTACX_site4405]”, 11.4 ± 1.1; to “TACATATTTTATAACTGTACTTTTTTATTATCCAAT [XGTACX_site5396]”, 11.6 ± 0.78.

Take “TTTATATAAATCAAATGTACATATTCCAAATATATA [XGTACX_site8515]”: the “gcPBM binding intensity (ln)” value is 11.1 ± 0.67. Turning to “TAGGAAAAAAATACAGTGCAATTTTTATATAAATAA [GTGCAC_site9979]”, the “gcPBM binding intensity (ln)” value was 9.74 ± 0.26. With “ATTAATATGAATAAAACACACATATATAACTTGTAA [CACACA_site6989]”, the “gcPBM binding intensity (ln)” value came to 9.92. “AATTATACTCACGTTACACACACACTATAAATATAT [CACACA_site7863]”: the “gcPBM binding intensity (ln)” value came out at 10.4 ± 0.28. Then “AAAAATTTGGCATACACACACACACGCACACGCACA [CACACA_site6422]”, with 10.5 ± 0.32; and “TAAACTATATTTACATGTACATATAATATTAAATAA [XGTACX_site3528]”, with 11.3 ± 0.81. Take “CCTATAAAACCATATACACACATATAAATAAAAAAA [CACACA_site7809]”: the “gcPBM binding intensity (ln)” value was determined as 10.1 ± 0.35.

For the origin of these results see the supplement of paper PMC11417369.
